Displacement data for 65 molecules are collected here from PubChem BioAssay AID1240 (Sanford-Burnham Center for Chemical Genomics, 2008).

The whole screen tested about 50,000 compounds, of which about 800 (1.6%) showed an effect of 50% or more. The list shows a part of the results.

The target of the assay is Bcl-2-like protein 10 (Homo sapiens) (UniProt Q9HD36). The experiment in a line: Phenotype converters, Bcl-B/TR3 peptide binding displacement, primary biochemical FP (AID 1240).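 Also: 0% = Bcl-B with tracer peptide and DMSO and 100% = tracer peptide lacking Bcl-B.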 The note with it: GST-Bcl-B / FITC-TR3 peptide fluorescence polarization; stronger effect = higher value; compound at 3.75 mg/L.
Chain of UniProt Q9HD36 (Q9HD36 whole entry, looked up): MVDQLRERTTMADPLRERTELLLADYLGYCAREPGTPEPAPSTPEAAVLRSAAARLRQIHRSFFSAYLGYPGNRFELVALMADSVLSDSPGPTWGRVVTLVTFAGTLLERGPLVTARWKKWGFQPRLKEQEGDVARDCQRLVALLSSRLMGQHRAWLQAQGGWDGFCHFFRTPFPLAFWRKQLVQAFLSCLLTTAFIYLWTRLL
Consider `O=C(c1nn2c(C(F)(F)F)cc(-c3cccs3)nc2c1Br)N1CCN(c2ccc(F)cc2)CC1`, for which the displacement was 2.1%.

In the case of `O=C(O)CC(Cc1ccc(Br)cc1)C(=O)Nc1ccccc1` (stereo not given), the displacement is 12.7%.

Consider `COc1cc(NC(=O)Cn2nc(C(F)(F)F)c(Cl)c2C)c(OC)cc1Cl`, for which the displacement stood at 6%.

Regarding `CC(=O)CC(c1ccccc1)S(=O)(=O)c1ccccc1C` (stereo not given), the displacement came to 0.2%.

With `CC1=C(C(=O)OC2CCCC2)C(c2cccc(Cl)c2Cl)C2=C(CC(C)(C)CC2=O)N1` (stereo not given), the displacement was found to be 7.9%.

On to `N#CC1=C(N)C(C#N)(C#N)C(c2cccnc2)C2CSCC=C12` (stereo not given), for which the displacement is 48.9%.

Turning to `COc1ccc(C(=O)/C=C/c2ccc(-c3ccc(Cl)cc3Cl)o2)cc1`, the displacement stood at 11.6%.

`COc1cc(/C=N/NC(=O)c2cccc([N+](=O)[O-])c2)cc(I)c1O`: the displacement was -0.6%.

Turning to `S=c1[nH]nc(-c2ccncc2)n1-c1ccccc1`, the displacement was -0.3%.

Consider `CCOC(=O)C1NN=C(C(=O)c2ccc(OC)cc2)C1c1ccccc1` (stereo not given), for which the displacement is 13.1%.

Turning to `O=C(O)CCC(=O)Nc1cccc(-c2cn3ccccc3n2)c1`, the displacement was 10.1%.

Regarding `CCOc1ccc(S(=O)(=O)N(CC(=O)NCc2ccco2)c2ccc(C)cc2)cc1`, the displacement came to 5.7%.

Regarding `Cc1ccc(/C(O)=C/c2nc3ccc(C)cc3oc2=O)cc1`, the displacement came out at 39.9%.

Consider `N#C/C(=C\c1cccs1)c1nc(-c2ccc(Cl)cc2Cl)cs1`, for which the displacement is 129%.

For `CCOC(=O)c1c(NC(=O)COc2cc(C)ccc2C(C)(C)C)sc(C(C)=O)c1C`, the displacement was -2.3%.

Consider `COc1ccc(/C=C2\C(=O)NC(=O)N(c3cccc(Br)c3)C2=O)c(OC)c1`, for which the displacement was 122%.

For `CC(C)(C)c1cc(Br)ccc1OCC(=O)Nc1ccccc1C(N)=O`, the displacement stood at 2.5%.

Consider `Cc1ccc(/C(N)=N/OC(=O)c2cccc(C)c2)cc1`, for which the displacement was 10.6%.

For the molecule `COc1ccc(N(CC(=O)NC(C)(C)C)S(C)(=O)=O)cc1`, the displacement came to 0.7%.

As for `COc1ccc(/C=C2/C(=O)N(c3ccccc3)N=C2c2ccccc2)c(OC)c1`, the displacement was found to be 11.4%.

Turning to `COc1cc(C=C2C(=O)NC(=O)NC2=O)cc(I)c1OCc1ccc([N+](=O)[O-])cc1`, the displacement was 9.6%.

On to `C=C(C)C1CCC(C)=C1CC/C(C)=N/NC(N)=S` (stereo not given), for which the displacement is 1.6%.

`CCCCCCOc1ccc(N2C(=O)CC(N(C)Cc3ccccc3)C2=O)cc1` (stereo not given): the displacement was found to be 1.5%.

Turning to `COc1ccc(NC(=O)CSc2nc3ccccc3s2)c(OC)c1`, the displacement turned out to be 9.2%.

Turning to `COc1ccc(OC)c(NC(=O)COc2ccc(C)c(C)c2)c1`, the displacement came out at 0.6%.

For `Cc1ccc(OC(=O)c2ccc([N+](=O)[O-])cc2)c(/C=C2\Sc3ccccc3C2=O)c1`, the displacement is -9.6%.

As to `CCOC(=O)C(CCOc1cc(C)c(Cl)c(C)c1)C(=O)OCC`, the displacement was found to be 13.4%.

With `COc1ccc(/C=N\NC(=O)c2ccc(S(=O)(=O)c3ccc(C(=O)N/N=C\c4ccc(OC)cc4)cc3)cc2)cc1`, the displacement is -5%.

As to `O=C(/C=C/c1ccco1)Nc1ccccc1NC(=O)/C=C/c1ccco1`, the displacement was -0.7%.

As to `Cc1cc(C)nc(/N=C(/NC(=O)c2ccccc2)Nc2ccccc2)n1`, the displacement was -3.5%.

As for `CC1=C(C(=O)OCc2ccc3c(c2)OCO3)C(c2ccc(O)c([N+](=O)[O-])c2)NC(=O)N1` (stereo not given), the displacement came out at 11.9%.

Consider `COc1ccc(C(=O)Nc2nc(-c3ccc(F)cc3)cs2)cc1OC`, for which the displacement was -2.2%.

With `CN=C(Nc1ccc2c(c1)OCO2)SC1CC(=O)N(c2ccc(Cl)cc2)C1=O` (stereo not given), the displacement was -10.4%.

As to `Cc1ccc(N2C(=O)CC(Cc3ccc(Cl)cc3)C2=O)cc1C` (stereo not given), the displacement worked out at 14.3%.

With `Cc1c(NC(=O)C(C)Sc2ccc(Cl)cc2)c(=O)n(-c2ccccc2)n1C` (stereo not given), the displacement is -13.6%.

Regarding `O=c1oc2cc(OC/C=C/c3ccccc3)ccc2cc1-c1ccccn1`, the displacement was found to be 16.9%.

Consider `COc1ccc(N(CC(=O)N2CCOCC2)S(=O)(=O)c2ccccc2[N+](=O)[O-])c(OC)c1`, for which the displacement came to 7.3%.

For the molecule `COC(=O)CC(C(=O)OC)C(CC(=O)OC)C(=O)OC` (stereo not given), the displacement was 16.6%.

As to `O=C1/C(=C\c2ccc3c(c2)OCO3)SC(=S)N1CCc1ccccc1`, the displacement is -2.3%.

On to `O=C(O)c1ccc(/C=c2\sc3n(c2=O)CCN=3)cc1`, for which the displacement was determined as 14.9%.

Turning to `CC(C)CNC(=O)c1cc(C(=O)NCC(C)C)cc(C(=O)Nc2ccc([N+](=O)[O-])cc2)c1`, the displacement is 12.6%.

As to `O=C(N/N=C/c1ccccc1O)C1CC(=O)N(c2ccc(Cl)cc2)C1` (stereo not given), the displacement is -26%.

For the molecule `CC12CC3(C)CC(C)(C1)CC(C(=O)NCc1cccnc1)(C2)C3`, the displacement came to 10%.

As for `CC1=C(C(=O)OCCOC(C)C)C2(O)C(=O)c3ccccc3C2(O)N1` (stereo not given), the displacement was -0.4%.

For the molecule `Cc1ccc(N(CC(=O)N2CCCC2)S(=O)(=O)c2ccc(F)cc2)cc1`, the displacement is 0.1%.

As to `COc1ccccc1C/C(N)=N/OC(=O)COc1ccc(Cl)cc1`, the displacement worked out at 1.6%.

For `COc1ccc(CSc2nncn2C)cc1`, the displacement stood at 1.2%.

On to `Oc1cccc(/C=N/Nc2cc(N3CCCCC3)nc(N3CCCCC3)n2)c1`, for which the displacement was -4.7%.

Regarding `COc1ccc(CCNC(=O)C(=O)Nc2cccc(C)c2)cc1`, the displacement stood at 4%.

`COc1cc(C2C(C(=O)OCc3ccccc3)=C(C)NC3=C2C(=O)CCC3)cc(Cl)c1O` (stereo not given): the displacement came out at 3.1%.

Take `C=CCOc1c(Br)cc(/C=C2\C(=O)NC(=O)N(c3ccc(Cl)cc3)C2=O)cc1OC`: the displacement came to 6.4%.

As for `N#Cc1ccccc1NC(=O)c1ccc(Br)cc1`, the displacement was found to be 15.9%.

Turning to `COC(=O)COc1ccc(C=C2C(=O)NC(=O)NC2=O)cc1OC`, the displacement was determined as 3%.

For `Cc1ccc(S(=O)(=O)N(CC(O)CN2CCCCC2)c2cccc(C)c2)cc1` (stereo not given), the displacement was -3.9%.

For `CSc1nnc2c(n1)OC(c1ccncc1)Nc1ccccc1-2` (stereo not given), the displacement turned out to be 12.6%.

As for `Cc1cc(/C=C2/SC(=S)NC2=O)c(C)n1-c1ccccc1`, the displacement is -39.7%.

For the molecule `Cc1cccc(-n2c(C)cc(/C=N/NC(=O)c3ccc(CN4CCOCC4)cc3)c2C)c1`, the displacement is -7.2%.

Consider `O=C(/C=C/c1ccc(F)cc1)c1nc2ccccc2s1`, for which the displacement was -6%.

Consider `COc1cccc(/C=C2\SC(=S)N(NC(=O)c3ccccc3Br)C2=O)c1`, for which the displacement was -63.2%.

Take `O=C(Nc1ccc(NC(=O)c2ccc(-c3ccc([N+](=O)[O-])cc3)o2)cc1)c1ccco1`: the displacement is 11%.

Turning to `CCN1C(=O)c2cccc3c(NC(=O)c4ccc(C(=O)c5ccccc5)cc4)ccc1c23`, the displacement was found to be 101%.

For `COc1ccc(NC(=O)CN(c2cccc(Cl)c2)S(C)(=O)=O)cc1`, the displacement worked out at 4.5%.

For the molecule `CCOc1ccc(NC(=O)c2c(NC(=O)CC)sc3c2CCC(C)C3)cc1` (stereo not given), the displacement amounted to 6.6%.

Regarding `CCOc1ccc(C(=O)Nc2ccc(OC(F)(F)F)cc2)cc1Cl`, the displacement stood at 1.7%.

For `COc1cc(C2C3=C(CC(C)(C)CC3=O)OC3=C2C(=O)CC(C)(C)C3)ccc1OCc1ccc([N+](=O)[O-])cc1`, the displacement came to 11.2%.
